Out of some 110,000 compounds screened, about 230 (0.21%) showed an effect of 50% or more. The list shows a part of the results.
The compounds below were run against DPAP1 (Plasmodium falciparum, UniProt Q8IIJ9) (assay: primary screen, percent inhibition; read by cleavage of a fluorogenic dipeptide substrate; higher = more effect of the substance).
Set-up: species or system P. falciparum D10 trophozoite lysates; single well
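Also: 30 min substrate incubation versus DMSO and 10 µM JCP410 controls.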

DPAP1, sequence (Q8IIJ9 whole entry, looked up): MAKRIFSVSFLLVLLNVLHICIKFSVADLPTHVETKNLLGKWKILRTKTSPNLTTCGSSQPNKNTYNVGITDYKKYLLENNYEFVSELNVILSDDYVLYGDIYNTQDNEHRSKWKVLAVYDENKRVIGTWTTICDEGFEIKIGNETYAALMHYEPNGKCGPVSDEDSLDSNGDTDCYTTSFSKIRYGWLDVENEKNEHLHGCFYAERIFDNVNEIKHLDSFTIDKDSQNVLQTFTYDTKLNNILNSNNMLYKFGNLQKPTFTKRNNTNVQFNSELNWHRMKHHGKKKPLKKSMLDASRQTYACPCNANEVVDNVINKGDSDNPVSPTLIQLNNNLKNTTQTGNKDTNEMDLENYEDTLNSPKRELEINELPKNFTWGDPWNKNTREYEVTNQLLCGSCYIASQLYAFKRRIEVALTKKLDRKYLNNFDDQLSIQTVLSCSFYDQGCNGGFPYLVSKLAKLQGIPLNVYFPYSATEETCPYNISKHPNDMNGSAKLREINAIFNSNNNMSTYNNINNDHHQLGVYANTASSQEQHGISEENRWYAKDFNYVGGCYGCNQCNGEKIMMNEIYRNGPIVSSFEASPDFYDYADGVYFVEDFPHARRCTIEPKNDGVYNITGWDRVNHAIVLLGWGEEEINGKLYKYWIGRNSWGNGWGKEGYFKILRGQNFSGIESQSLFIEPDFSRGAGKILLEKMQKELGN

Row | Compound | % Inhibition @ 10 uM
1 | CCN(CC)CCN(CC)Cc1cccc(Cl)c1Cl | 1.9%
2 | Cc1ccc(S(=O)(=O)N(CC(=O)Nc2cccnc2)c2cccc(C(F)(F)F)c2)cc1 | -5.5%
3 | O=C(c1ccco1)N1CCN(S(=O)(=O)c2c[nH]cn2)CC1 | -1.05%
4 | CCC1CCc2c(sc(NC(=O)Nc3cccc(C)c3)c2C(N)=O)C1 (stereo not shown) | -2.82%
5 | O=C(NCCO)C(c1ccccc1)c1ccccc1 | 0.247%
6 | O=C(NC1CCCCC1)c1ccc(C2SCC(=O)N2CCc2ccccc2)cc1 (stereo not shown) | -1.18%
7 | O=C(CCCOc1ccc(Cl)cc1)N1CCOCC1 | 0.222%
8 | OC1(c2ccc(Br)cc2)CCN(C2CCSC2)CC1 (stereo not shown) | -0.0908%
9 | CCN1C(C(=O)c2ccccc2)=C(OC(=O)c2ccc(OC)c(OC)c2)c2ccccc2S1(=O)=O | 3.54%
10 | CSc1ccc(C2C(C#N)=C(N)Oc3[nH]nc(C(C)(C)C)c32)cc1 (stereo not shown) | 0.983%
11 | CCCCNC(=O)CN(c1ccc(F)cc1)S(=O)(=O)c1ccccc1 | -5.46%
12 | CC(=O)N1N=C(Cc2ccc(-c3ccccc3)cc2)OC12CCCC2 | 4.18%
13 | COc1ccc(-c2cc(C(=O)Nc3ccc(S(N)(=O)=O)cc3)c3ccccc3n2)cc1OC | -0.999%
14 | CN(C)c1ccc(/C=C/c2[nH]c(=O)[nH]c(=O)c2[N+](=O)[O-])cc1 | 2.6%
15 | CCCc1cc(C(=O)NCCc2ccccc2)no1 | -0.591%
16 | Cc1ccc(S(=O)(=O)NCC2CCC(C(=O)N3CCCCCC3)CC2)cc1 (stereo not shown) | 6.95%
17 | COc1ccc(C(C#N)Nc2ccccc2C)cc1 (stereo not shown) | 4.98%
18 | COc1ccc(NC(=S)/N=C(/NCS(=O)(=O)c2ccc(C)cc2)c2ccc(OC)cc2)cc1 | 3.56%
19 | Cc1oc2c(C)c3oc(=O)c(CC(=O)N4CCOCC4)c(C)c3cc2c1-c1ccccc1 | 2.54%
20 | CCC(C)NC(=O)c1cc(-c2ccccc2)[nH]n1 (stereo not shown) | -1.26%
21 | CCn1c2ccc(Br)cc2c2cc(NC(C)=O)ccc21 | 2.84%
22 | COCC(C)NC(=O)c1cc(OC)cc(OC)c1 (stereo not shown) | 0.163%
23 | Cc1ccc(OCCCn2cc(C#N)c3ccccc32)cc1 | 2.01%
24 | CCc1nc2ccccc2n1CCC(=O)O | -1.74%
25 | CC(NC1CCN(Cc2ccccc2)CC1)c1ccc(F)cc1 (stereo not shown) | -3.15%

Row | Compound | % Inhibition @ 10 uM
26 | CCOc1ccc2nc(Sc3ccc(C=C4C(=O)NC(=O)NC4=O)o3)sc2c1 | -2.39%
27 | COc1ccc(-n2cc(Cl)nc(N[C@@H](C)c3ccccc3)c2=O)cc1 | -5.63%
28 | CCC(=O)/C=C1\Sc2ccccc2N1CC | -8.22%
29 | CCc1ccc(/C=c2\sc3nc(-c4ccccc4OC)nn3c2=O)cc1 | -1.18%
30 | O=C(CSc1cccc2cccnc12)Nc1nc2c(ccc3ccccc32)s1 | 8.6%
31 | NC1=NC(=O)/C(=C/c2ccc(-c3ccccc3Cl)o2)S1 | 1.96%
32 | COc1ccc(CN2CCN(Cc3ccco3)CC2)c(OC)c1OC | -8.59%
33 | CCC[C@@H](NC(=O)OCc1ccccc1)C(=O)NCC#N | 0.079%
34 | Cc1ccc2nc(N3CCOCC3)c3nnnn3c2c1 | 2.82%
35 | CCn1cc(NC(=O)NCc2ccc3c(c2)OCO3)c(=O)c2ccc(C)nc21 | 0.635%
36 | CCc1c(N2CCOCC2)nc2n(c1=O)CCS2 | -1.15%
37 | Cn1c(=O)c2nc(CN3CCN(CCO)CC3)[nH]c2n(C)c1=O | 0.627%
38 | N#Cc1c(NC(=O)c2ccccc2)sc2c1CCCCC2 | -0.736%
39 | NC(=O)c1cccc(NC(=O)c2ccccc2C(=O)O)c1 | -5.07%
40 | CC(C)(C)NS(=O)(=O)c1cn(CC(=O)N2CCCC2)cc1S(=O)(=O)NC(C)(C)C | -5.48%
41 | COC(=O)c1ccc(CSc2nc(O)c3cnn(-c4ccccc4)c3n2)o1 | 0.208%
42 | COCCCNC(=O)c1cc2c(-c3ccc(Cl)cc3)nn(C)c2s1 | -4.96%
43 | S=C1NCN(CCc2ccccc2)CN1CC1CCCO1 (stereo not shown) | -3.74%
44 | CC(=O)NC1CCCc2c1[nH]c1ccc(C)cc21 (stereo not shown) | 1.26%
45 | O=c1/c(=C/c2ccco2)sc2n1CN(c1ccccc1)CN=2 | 0.727%
46 | CC1=C(C(=O)Nc2ccccc2C)C(c2cccs2)NC(S)=N1 (stereo not shown) | 1.88%
47 | COc1ccc(C(CC(=O)Nc2ccc(Cl)cc2)NC(=O)C(F)(F)F)cc1 (stereo not shown) | -0.216%
48 | Cc1c(C(=O)NCC2COc3ccccc3O2)oc2ccc(S(=O)(=O)N(C)C3CCCCC3)cc12 (stereo not shown) | 9.56%
49 | CCOc1ccc(Nc2nc(N)nc(CN3CC(C)CC(C)C3)n2)cc1 (stereo not shown) | 0.408%
50 | O=C(CSCc1cccc(Br)c1)Nc1cccc2ccccc12 | -1.91%

Row | Compound | % Inhibition @ 10 uM
51 | FC(F)Oc1ccc(C2C=C(c3ccccc3OC(F)F)Nc3ncnn32)cc1 (stereo not shown) | 9.16%
52 | O=c1/c(=C/c2ccccc2)sc2nc3ccc(Cl)cc3c(=O)n12 | 1.27%
53 | C=CCn1c2ccccc2c2nnc(SCC(=O)Nc3nc(C)c(C(=O)OCC)s3)nc21 | 0.484%
54 | COc1cc2c(cc1OC)C(C(=O)N(C)Cc1ccccc1)C(c1ccccc1F)N(C)C2=O (stereo not shown) | 1.07%
55 | O=c1oc(-c2ccccc2)nc2c1C1(CCCC1)Cc1ccccc1-2 | 3.42%
56 | COc1ccc(NC(=O)C(C)c2cccc(C(=O)c3ccccc3)c2)cc1 (stereo not shown) | 6.69%
57 | COc1cc(CN2CCc3c([nH]c4ccccc34)C2)cc(OC)c1 | 1.38%
58 | Cc1ccc2c(c1)-c1c(cnn1CC(=O)NCC1CCCO1)CO2 (stereo not shown) | -4.34%
59 | Nc1ccc2nc(SCC(=O)Nc3cccc(C(F)(F)F)c3)sc2c1 | 6.1%
60 | CC1CC(C)CN(CCCNC(=O)C2CCN(S(=O)(=O)N3CCCCC3)CC2)C1 (stereo not shown) | -3.12%
61 | CCC1CCCCN1CCCNC(=O)CS(=O)Cc1nc(-c2ccc(OC)c(OC)c2)oc1C (stereo not shown) | -4.71%
62 | Cc1ccc(/C=C/C2=NC(=C\c3cccc(Cl)c3)/C(=O)O2)cc1 | 9.23%
63 | CSCCC(C(=O)Nc1ccc(Cl)cc1)N1C(=O)c2ccccc2C1=O (stereo not shown) | 0.851%
64 | O=CN1CCN(CC(c2ccccc2)c2ccccc2)CC1 | 1.88%
65 | CCN1CCC(C#N)(NC(=O)[C@H](Cc2c(F)cccc2F)NC(=O)c2ccc(-c3c(Cl)cccc3Cl)nc2)CC1 | -3.14%
66 | Cc1c(C(=O)N2CCCCC2)sc(N)c1C#N | -2.97%
67 | O=C1C2CC=C(Cl)CC2C(=O)N1CCCN1CCOCC1 (stereo not shown) | -7.23%
68 | COc1cccc2cc(C(=O)CS(=O)(=O)c3ccc(Br)cc3)c(=O)oc12 | 8.35%
69 | CCOc1ccc(C2CC(=O)NC(SCC(=O)Nc3ccccc3)=C2C#N)cc1 (stereo not shown) | 2.01%
70 | CCOc1ccc(S(=O)(=O)Nc2cc(Cl)ccc2OC)cc1 | -0.116%
71 | CN(C)/C=C/C(=O)c1nnn(-c2ccccc2)c1Nc1ccccc1 | 0.634%
72 | Cc1noc(C)c1S(=O)(=O)N1CCC(C(=O)NC2CCN(Cc3ccccc3)CC2)CC1 | 3.33%
73 | CN(CCNC(=O)Cn1ncc2c3ccccc3n(Cc3ccccc3F)c2c1=O)C1CCCCC1 | 3.4%
74 | CC(C)Cc1cc(-c2ccc(Cl)cc2)c(C#N)c(N)n1 | 1.88%
75 | Cc1ccc(C(=O)Nc2cccc3ccccc23)cc1[N+](=O)[O-] | 0.467%

Row | Compound | % Inhibition @ 10 uM
76 | CCCCNC(=O)Cn1c(=O)c2cccn2c2cccnc21 | -0.677%
77 | COc1ccc(-n2cccc2/C=C2/C(=O)NC(=O)N(Cc3ccco3)C2=O)cc1Cl | -3.35%
78 | COc1ccc(C2NC(=O)Cc3cc(OC)c(OC)cc32)cc1 (stereo not shown) | 1.72%
79 | Oc1ncnc2sc3c(c12)CCN(Cc1ccccc1)C3 | 6.74%
80 | Cc1ccc(NC(=O)c2ccc(-c3ccccc3)cc2)cc1O | -2.65%
81 | O=C(Nc1ccccc1)Nc1ccc2c(c1)OCO2 | 5.85%
82 | CCOC(=O)N1CCC(N2CCN(c3ncccn3)CC2)CC1 | 0.217%
83 | COc1ccc(C(=O)N2CCN(c3ccccc3)CC2)cc1OC | -1.96%
84 | Cc1cc(O)nc(SCC(=O)O)n1 | -2.75%
85 | CCN(CC)S(=O)(=O)c1ccc(NC(=O)COc2ccccc2C)cc1 | -0.116%
86 | C=CCNC(=O)c1cc(-c2ccco2)on1 | -0.591%
87 | Cc1cc(OCC(=O)Nc2ccc(S(=O)(=O)Nc3ccc(F)cc3)cc2)ccc1Br | -1.17%
88 | CC(C)(CO)NC(=O)c1ccc(Cl)c(S(=O)(=O)N2CCCCC2)c1 | -0.467%
89 | COc1ccc(N2C(N)=C(C#N)C(c3ccsc3)C3=C2CCCC3=O)c(OC)c1 (stereo not shown) | -4.41%
90 | Cn1c(=O)c2nc(NCCCOC(=O)c3ccccc3F)[nH]c2n(C)c1=O | -4.78%
91 | CCCCSc1nc(-c2ccccc2)nc2c1Cc1c(CO)cnc(C)c1O2 | 3.02%
92 | CCOC(=O)C1=C(CNCCN2CCOCC2)NC(=O)NC1c1cc(C)ccc1C (stereo not shown) | -0.403%
93 | Cc1ccc(C(=O)NCCn2cccc2)cc1 | 5.76%
94 | CCOc1ccc(OCCn2c(SCC(=O)O)nc3c(N)ncnc32)cc1 | -3.5%
95 | Oc1nnc(SCc2ccccc2)c(O)n1 | -1.29%
96 | Cc1ccc(-c2csc(-c3cc4cc([N+](=O)[O-])ccc4oc3=O)n2)c(C)c1 | -4.31%
97 | CNS(=O)(=O)c1cn(CC(=O)NCC2CCCO2)cc1S(=O)(=O)NC (stereo not shown) | -7.47%
98 | Cc1oncc1C(=O)Nc1ccc2ccccc2c1 | 8.5%
99 | CCOC(=O)N1CCC(N2CNc3c(c(=O)n(C)c(=O)n3C)C2)CC1 | -1.08%
100 | COCCCNS(=O)(=O)c1ccc(-c2ccc(S(=O)(=O)NCCCOC)cc2)cc1 | -4.32%
